# The other results are listed elsewhere or left out.
# B1: MUC1-SEA-mFcIgG2a (Homo sapiens), P15941 (SEA domain only) (protein)
# chain: DAAQPARRAVRSSSELTSEQKLISEEDLSRLVHNGTSARATTTPASKSTPFSIPSHHSDTPTTLASHSTKTDASSTHHSTVPPLTSSNHSTSPQLSTGVSFFFLSFHISNLQFNSSLEDPSTDYYQELQRDISEMFLQIYKQGGFLGLSNIKFRPGSVVVQLTLAFREGTINVHDVETQFNQYKTEAASRYNLTISDASVSDVPFPFSAQSGSDDDDKALEPRGPTIKPCPPCKCPAPNLLGGPSVFIFPPKIKDVLMISLSPIVTCVVVDVSEDDPDVQISWFVNNVEVHTAQTQTHREDYNSTLRVVSALPIQHQDWMSGKEFKCKVNNKDLPAPIERTISKPKGSVRAPQVYVLPPPEEEMTKKQVTLTCMVTDFMPEDIYVEWTNNGKTELNYKNTEPVLDSDGSYFMYSKLRVEKKNWVERNSYSCSVVHEGLHNHHTTKSFSRTPGKHHHHH
# How the values were obtained:
# Assay in all cases: glycan array binding signal (z-score within array); higher = stronger binding
# Details in all cases: glycan notation: IUPAC condensed, linker removed
# [1] = molecular target: Fuc(a1-3)[GalNAc(b1-4)]GlcNAc
# Outline: (§1)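 The Consortium for Functional Glycomics database supplied 3228 glycan arrays, of which those lacking an available protein sequence were dropped. The binding signal, a within-array Z-score, was averaged across arrays of the same protein sequence and across linkers. Negative scores can be read as non-binding.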
# Fuc(a1-4)GlcNAc = molecular target: Fuc(a1-4)GlcNAc
# Outline: as §1
# Fuc(b1-3)GlcNAc = molecular target: Fuc(b1-3)GlcNAc
# Outline: as §1
# Gal(a1-2)Gal = molecular target: Gal(a1-2)Gal
# Outline: as §1
# Gal(a1-3)Gal = molecular target: Gal(a1-3)Gal
# Outline: as §1
# Gal(a1-3)Gal(b1-3)GlcNAc = molecular target: Gal(a1-3)Gal(b1-3)GlcNAc
# Outline: as §1
# Gal(a1-3)Gal(b1-4)Glc = molecular target: Gal(a1-3)Gal(b1-4)Glc
# Outline: as §1
# Gal(a1-3)Gal(b1-4)GlcNAc = molecular target: Gal(a1-3)Gal(b1-4)GlcNAc
# Outline: as §1
# [2] = molecular target: Gal(a1-3)Gal(b1-4)[Fuc(a1-3)]GlcNAc
# Outline: as §1
# Gal(a1-3)GalNAc = molecular target: Gal(a1-3)GalNAc
# Outline: as §1
# [3] = molecular target: Gal(a1-3)[Gal(a1-4)]Gal(b1-4)GlcNAc
# Outline: as §1
# Gal(a1-4)Gal(b1-4)Glc = molecular target: Gal(a1-4)Gal(b1-4)Glc
# Outline: as §1
# Gal(a1-4)Gal(b1-4)GlcNAc = molecular target: Gal(a1-4)Gal(b1-4)GlcNAc
# Outline: as §1
# Gal(a1-4)GlcNAc = molecular target: Gal(a1-4)GlcNAc
# Outline: as §1
# Gal(a1-6)Glc = molecular target: Gal(a1-6)Glc
# Outline: as §1
# Gal(b1-2)Gal = molecular target: Gal(b1-2)Gal
# Outline: as §1
# Gal(b1-3)Gal = molecular target: Gal(b1-3)Gal
# Outline: as §1
# Gal(b1-3)Gal(b1-4)GlcNAc = molecular target: Gal(b1-3)Gal(b1-4)GlcNAc
# Outline: as §1
# Gal(b1-3)GalNAc = molecular target: Gal(b1-3)GalNAc
# Outline: as §1
# [4] = molecular target: Gal(b1-3)GalNAc(b1-3)Gal(a1-4)Gal(b1-4)Glc
# Outline: as §1
# [5] = molecular target: Gal(b1-3)GalNAc(b1-4)Gal(b1-4)Glc
# Outline: as §1
# [6] = molecular target: Gal(b1-3)GalNAc(b1-4)[Neu5Ac(a2-3)]Gal(b1-4)Glc
# Outline: as §1
# Gal(b1-3)GlcNAc = molecular target: Gal(b1-3)GlcNAc
# Outline: as §1
# [7] = molecular target: Gal(b1-3)GlcNAc(b1-2)Man(a1-3)[Gal(b1-3)GlcNAc(b1-2)Man(a1-6)]Man(b1-4)GlcNAc(b1-4)GlcNAc
# Outline: as §1
# [8] = molecular target: Gal(b1-3)GlcNAc(b1-3)Gal(b1-3)GlcNAc
# Outline: as §1
# [9] = molecular target: Gal(b1-3)GlcNAc(b1-3)Gal(b1-4)Glc
# Outline: as §1
# [10] = molecular target: Gal(b1-3)GlcNAc(b1-3)Gal(b1-4)GlcNAc
# Outline: as §1
# [11] = molecular target: Gal(b1-3)[Fuc(a1-4)]GlcNAc
# Outline: as §1
# [12] = molecular target: Gal(b1-3)[Fuc(a1-4)]GlcNAc(b1-3)Gal(b1-3)[Fuc(a1-4)]GlcNAc
# Outline: as §1
# [13] = molecular target: Gal(b1-3)[Fuc(a1-4)]GlcNAc(b1-3)Gal(b1-4)GlcNAc
# Outline: as §1
# [14] = molecular target: Gal(b1-3)[Fuc(a1-4)]GlcNAc(b1-3)Gal(b1-4)[Fuc(a1-3)]GlcNAc
# Outline: as §1
# [15] = molecular target: Gal(b1-3)[GlcNAc(b1-6)]GalNAc
# Outline: as §1
# [16] = molecular target: Gal(b1-3)[Neu5Ac(a2-6)]GalNAc
# Outline: as §1
# [17] = molecular target: Gal(b1-3)[Neu5Ac(a2-6)]GlcNAc(b1-6)Gal(b1-4)Glc
# Outline: as §1
# [18] = molecular target: Gal(b1-3)[Neu5Ac(b2-6)]GalNAc
# Outline: as §1
# [19] = molecular target: Gal(b1-4)GalNAc(a1-3)[Fuc(a1-2)]Gal(b1-4)GlcNAc
# Outline: as §1
# [20] = molecular target: Gal(b1-4)GalNAc(b1-3)[Fuc(a1-2)]Gal(b1-4)GlcNAc
# Outline: as §1
# Gal(b1-4)Glc = molecular target: Gal(b1-4)Glc
# Outline: as §1
# Gal(b1-4)Glc6S = molecular target: Gal(b1-4)Glc6S
# Outline: as §1
# Gal(b1-4)GlcNAc = molecular target: Gal(b1-4)GlcNAc
# Outline: as §1
# [21] = molecular target: Gal(b1-4)GlcNAc(a1-6)Gal(b1-4)GlcNAc
# Outline: as §1
# [22] = molecular target: Gal(b1-4)GlcNAc(b1-2)Man(a1-3)[Gal(b1-4)GlcNAc(b1-2)Man(a1-6)]Man(b1-4)GlcNAc(b1-4)GlcNAc
# Outline: as §1
# [23] = molecular target: Gal(b1-4)GlcNAc(b1-3)Gal(b1-3)GlcNAc
# Outline: as §1
# [24] = molecular target: Gal(b1-4)GlcNAc(b1-3)Gal(b1-4)Glc
# Outline: as §1
# [25] = molecular target: Gal(b1-4)GlcNAc(b1-3)Gal(b1-4)GlcNAc
# Outline: as §1
binder,measurement,setting,value
B1,glycan array binding signal (z-score),[1],-0.109
same,glycan array binding signal (z-score),Fuc(a1-4)GlcNAc,-0.243
same,glycan array binding signal (z-score),Fuc(b1-3)GlcNAc,-0.021
same,glycan array binding signal (z-score),Gal(a1-2)Gal,-0.134
same,glycan array binding signal (z-score),Gal(a1-3)Gal,-0.29
same,glycan array binding signal (z-score),Gal(a1-3)Gal(b1-3)GlcNAc,-0.394
same,glycan array binding signal (z-score),Gal(a1-3)Gal(b1-4)Glc,-0.099
same,glycan array binding signal (z-score),Gal(a1-3)Gal(b1-4)GlcNAc,-0.067
same,glycan array binding signal (z-score),[2],-0.449
same,glycan array binding signal (z-score),Gal(a1-3)GalNAc,-0.153
same,glycan array binding signal (z-score),[3],-0.03
same,glycan array binding signal (z-score),Gal(a1-4)Gal(b1-4)Glc,0.336
same,glycan array binding signal (z-score),Gal(a1-4)Gal(b1-4)GlcNAc,0.335
same,glycan array binding signal (z-score),Gal(a1-4)GlcNAc,-0.358
same,glycan array binding signal (z-score),Gal(a1-6)Glc,0.204
same,glycan array binding signal (z-score),Gal(b1-2)Gal,1.06
same,glycan array binding signal (z-score),Gal(b1-3)Gal,-0.043
same,glycan array binding signal (z-score),Gal(b1-3)Gal(b1-4)GlcNAc,-0.317
same,glycan array binding signal (z-score),Gal(b1-3)GalNAc,-0.147
same,glycan array binding signal (z-score),[4],-0.529
same,glycan array binding signal (z-score),[5],0.472
same,glycan array binding signal (z-score),[6],-0.433
same,glycan array binding signal (z-score),Gal(b1-3)GlcNAc,-0.294
same,glycan array binding signal (z-score),[7],-0.358
same,glycan array binding signal (z-score),[8],-0.473
same,glycan array binding signal (z-score),[9],-0.191
same,glycan array binding signal (z-score),[10],-0.319
same,glycan array binding signal (z-score),[11],-0.253
same,glycan array binding signal (z-score),[12],-0.122
same,glycan array binding signal (z-score),[13],-0.442
same,glycan array binding signal (z-score),[14],-0.598
same,glycan array binding signal (z-score),[15],-0.45
same,glycan array binding signal (z-score),[16],-0.066
same,glycan array binding signal (z-score),[17],-0.439
same,glycan array binding signal (z-score),[18],-0.316
same,glycan array binding signal (z-score),[19],-0.326
same,glycan array binding signal (z-score),[20],0.806
same,glycan array binding signal (z-score),Gal(b1-4)Glc,-0.124
same,glycan array binding signal (z-score),Gal(b1-4)Glc6S,0.371
same,glycan array binding signal (z-score),Gal(b1-4)GlcNAc,-0.304
same,glycan array binding signal (z-score),[21],-0.059
same,glycan array binding signal (z-score),[22],-0.667
same,glycan array binding signal (z-score),[23],0.367
same,glycan array binding signal (z-score),[24],-0.139
same,glycan array binding signal (z-score),[25],-0.367

# — the supplement of paper PMC8728848
